Test results as given in the supplement of paper PMC3334620.
The full ranking holds about 33,000 sequences; the median of “E-score (-0.5 to 0.5)” is about -0.056, and the highest 2% start at about 0.38. Some of the results follow.

These sequences were tested against Stb4 (UniProt P50104) (assay: PBM E-score (8-mer binding enrichment) (E-score (-0.5 to 0.5)); higher = stronger / more preferred TF binding; most listed sequences are background and not binding sites). Settings: protein concentration: 200 nM; construct: GST-DNA-binding domain.
Outline: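 Masliner-normalised scans of fluorescent anti-GST signal were the basis for scoring. That signal came from GST-tagged yeast transcription factors applied at about 100-200 nM to double-stranded universal all-10-mer Agilent arrays on fresh or once-stripped slides. Each ungapped eight-base word, pooled with its reverse complement, received an E-score from the Universal PBM Analysis Suite.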

Row | Sequence | PBM E-score
1 | CTAATTGA | 0.00327
2 | CCACAATA | 0.0305
3 | TGATACCA | -0.0462
4 | AGACAAGC | -0.115
5 | CTTCGGAC | 0.386
6 | AAACGCTC | 0.051
7 | CGTAGCAC | -0.154
8 | TCGATGCA | -0.104
9 | AATTGGGT | -0.119
10 | GAGAGATC | -0.0968
11 | AAATCGAC | -0.102
12 | ATCGCCCA | -0.143
13 | CTGACGTC | -0.271
14 | ATGGATTA | -0.303
15 | ACATGGCT | -0.0761
16 | AGTTGGTG | -0.0868
17 | CCTCATAA | -0.183
18 | ACAACCAC | 0.0252
19 | CCACCGGA | 0.378
20 | GCGGCGAC | 0.149
21 | ATCATTGC | -0.205
22 | CCTCGCAC | -0.0845
23 | TCTGACCA | -0.24
24 | AGCGCTCG | -0.0312
25 | ACTCTGGG | -0.257

Row | Sequence | PBM E-score
26 | AGCCGGCG | 0.325
27 | TCCGTAAA | 0.274
28 | GTAGAGCA | -0.291
29 | ACACGACA | -0.232
30 | ACAACGAT | 0.00979
31 | CCCTCGGA | 0.464
32 | CAGGCCGA | 0.246
33 | CGACCCAG | 0.073
34 | CTTCTCAC | -0.00077
35 | AGTTTCGG | 0.412
36 | GAAACGCC | 0.118
37 | TGCAGCAA | -0.132
38 | GAGGCATC | -0.088
39 | CCGGGGGA | 0.224
40 | AGACAGGA | -0.167
41 | ATGCAATG | -0.183
42 | ATCGCTGC | -0.00678
43 | CAAGCTGA | -0.279
44 | CTTCCTTA | -0.116
45 | GATGTTGA | -0.138
46 | CCCTGTGC | -0.0934
47 | ACCCTACT | -0.156
48 | AAGGGGCA | -0.127
49 | GGGGTTTA | -0.0416
50 | CAGTTGCC | 0.101

Row | Sequence | PBM E-score
51 | AAATGGGT | -0.0154
52 | ATTATGGA | -0.154
53 | GCACAACC | -0.0641
54 | CTGATCTC | -0.137
55 | CAAATCTC | 0.116
56 | ACAAGGCT | -0.138
57 | CTAACATC | -0.0585
58 | TACTCCGA | 0.369
59 | TACGTCGA | -0.143
60 | CCACCGCG | -0.00158
61 | CCTGTCCA | -0.217
62 | CCAGTGAG | -0.196
63 | AATCGTCC | 0.0978
64 | GAGCCTGC | -0.0113
65 | AAACGGAC | -0.0576
66 | CTTAAGAA | -0.0442
67 | CTCATTCA | -0.0489
68 | CATTATAC | -0.0466
69 | CCAGCCTC | -0.187
70 | GCGTTGGA | -0.0621
71 | ATGAGCCC | -0.191
72 | TAAAGCCA | -0.278
73 | AAGGCGCC | -0.0644
74 | CCAAGTCC | -0.104
75 | TCATGTCA | -0.183

Row | Sequence | PBM E-score
76 | CTGGGATC | -0.0424
77 | GCCCGGAA | 0.423
78 | ACGTCCTG | -0.264
79 | CAGAATAG | -0.0984
80 | GTACTCAA | -0.179
81 | ACGTGGGA | -0.323
82 | AATTCGAT | 0.0565
83 | AGGCTATC | 0.171
84 | AGAGGTTA | -0.121
85 | AATCACCG | 0.113
86 | AATAGGAA | -0.047
87 | TGCCGAAA | 0.444
88 | CCGCTATA | 0.0382
89 | CGATGCCC | -0.0137
90 | ATTGGAGA | -0.138
91 | CGGTGCGA | 0.0264
92 | AATTGGAA | -0.0421
93 | CCAGACGG | -0.0564
94 | ACAACTCA | -0.162
95 | ATAAGATA | -0.0798
96 | CAGTGTGC | -0.277
97 | ACACTCCG | 0.141
98 | CAGAGTGA | -0.0625
99 | AGGATGGC | -0.0549
100 | AAGACCAC | -0.242

Row | Sequence | PBM E-score
101 | CTCATTGA | -0.184
102 | AACTCGAT | -0.0356
103 | GTAGCCAA | -0.025
104 | CCAGAGAG | -0.229
105 | CGCTGGCC | -0.184
106 | AGCAGCTG | -0.307
107 | CGAGAGTA | 0.208
108 | AGTATAAG | -0.178
109 | CGACAGTC | -0.088
110 | GTAGGCGA | -0.177
111 | AAACCGTT | -0.0185
112 | CCTGCGGA | 0.155
113 | CAACATCA | -0.113
114 | TAGGTACA | -0.253
115 | CGCTGCCA | -0.14
116 | ACGTTTAT | -0.169
117 | AGCAGACG | -0.115
118 | GTCTTTGA | -0.0803
119 | CCACGATC | -0.109
120 | CGATAACG | 0.147
121 | ACCAAAAT | 0.0477
122 | CATGCATC | 0.121
123 | CTCAAGTA | -0.237
124 | ACCCCCCC | -0.258
125 | ACCCCGGC | 0.177

Row | Sequence | PBM E-score
126 | CAGATACA | -0.0179
127 | GATAACGC | 0.14
128 | AGGCCAGC | -0.355
129 | AACTACTG | -0.0775
130 | CACGAGTA | -0.133
131 | GGGGACAA | 0.109
132 | TCACATGA | -0.189
133 | GAATACGA | 0.041
134 | ATGGATAG | 0.0829
135 | ATAGACAA | -0.161
136 | AGTTGCGC | 0.00476
137 | AACAGGGT | -0.12
138 | CCCCTGCC | -0.0484
139 | GATGAGGA | -0.0802
140 | AGGCGTTC | -0.0922
141 | TATAGACA | -0.192
142 | GTATGAAA | 0.0752
143 | ATTCGAGC | -0.174
144 | GGATTGAA | 0.0752
145 | GGGGGTAA | -0.157
146 | ACAGGGTA | -0.192
147 | GGGGGGGA | -0.254
148 | AAGTAACG | -0.0442
149 | AAGTTAGT | 0.0765
150 | CGTTATAA | 0.0593

Row | Sequence | PBM E-score
151 | AGCAGTTC | -0.305
152 | AAATGGAC | -0.00847
153 | TCAGGTAA | -0.287
154 | AGGCCATC | -0.0517
155 | ATCAGCCA | 0.0129
156 | TACGGGGA | 0.0916
157 | TCGGATAA | 0.487
158 | AAAAGGGT | -0.092
159 | TCTTATAA | 0.0481
160 | ATCGCCGA | 0.329
161 | AGTCCCCA | -0.364
162 | CGGTCAGA | 0.107
163 | CGCGTAAC | 0.0425
164 | ATTAAAGC | -0.135
165 | CAGCGCTC | -0.14
166 | TCACTCCA | -0.042
167 | CTTCGCGA | 0.0228
168 | ATATCGGA | 0.383
169 | CAGCCTGG | -0.203
170 | CTCCTACC | -0.137
171 | TACCCGTA | 0.31
172 | AGACTGTG | -0.121
